According to the supplement of paper PMC3334620:
Whole data set: some 33,000 sequences, median “E-score (-0.5 to 0.5)” near -0.017, cut for the highest 2% near 0.3. The list shows a part of the results.

target: T1, Sut1 (UniProt P53032); assay: PBM E-score (8-mer binding enrichment) (E-score (-0.5 to 0.5)); higher = stronger / more preferred TF binding; most listed sequences are background and not binding sites; conditions: protein concentration: 200 nM; construct: GST-full length
T1 sequence: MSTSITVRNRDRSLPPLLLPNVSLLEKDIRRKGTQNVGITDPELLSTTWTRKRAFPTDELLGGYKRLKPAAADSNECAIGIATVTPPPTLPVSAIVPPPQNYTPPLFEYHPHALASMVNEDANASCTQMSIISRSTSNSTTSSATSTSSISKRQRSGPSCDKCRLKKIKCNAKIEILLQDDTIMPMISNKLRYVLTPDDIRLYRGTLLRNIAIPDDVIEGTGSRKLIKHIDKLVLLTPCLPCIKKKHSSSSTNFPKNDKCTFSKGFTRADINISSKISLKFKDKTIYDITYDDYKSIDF
Outline: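 PURExpress in vitro transcription/translation supplied GST-tagged yeast transcription factors, either full-length or DNA-binding domain. Applied at about 100-200 nM to universal all-10-mer Agilent arrays double-stranded by primer extension, the bound protein was detected with fluorescent anti-GST. E-scores, modified Wilcoxon-Mann-Whitney statistics, were given by the Universal PBM Analysis Suite to ungapped eight-base words pooled with their reverse complements after masliner normalisation.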

| Sequence | PBM E-score |
| --- | --- |
| CCAACAAG | -0.0968 |
| ATGTTTTG | 0.0309 |
| CAGTACGG | -0.0271 |
| AGGCTACC | -0.244 |
| CGCTATAC | -0.0585 |
| GCTTGCCC | -0.291 |
| GCGTCAGC | -0.0582 |
| GTACCGTA | 0.0369 |
| ACTGACCT | -0.159 |
| CAAACGTA | 0.00159 |
| CTCTATCA | 0.0296 |
| GATTGGGC | -0.0149 |
| GGAAAACA | 0.164 |
| CGATAAAC | -0.077 |
| GTCTCAGA | -0.0872 |
| ATAACGAC | 0.213 |
| CCAACGAC | -0.14 |
| ACCAGACC | -0.167 |
| GATTAATA | 0.154 |
| TAAAACAA | 0.207 |
| GGGGAATA | -0.0656 |
| AGAATCCA | 0.00183 |
| ACCTCCGG | 0.322 |
| GATTAGTA | 0.0528 |
| CGACTCGC | -0.174 |

| Sequence | PBM E-score |
| --- | --- |
| AAGATATT | 0.226 |
| GTATGTTA | 0.196 |
| GAGAATTA | 0.157 |
| ACGGTGTC | -0.131 |
| CTCTCCAG | -0.321 |
| GACCGCTC | -0.0564 |
| AGCTCCCC | -0.265 |
| ACATATGT | 0.0268 |
| ACAGCGGC | -0.307 |
| CGATCTGA | 0.047 |
| CCCTACAG | -0.249 |
| GATTCAGA | 0.115 |
| ACGCTTCA | -0.199 |
| ATCTTCAC | -0.0358 |
| CCGGCTTA | 0.0147 |
| AAACCCGT | -0.24 |
| AGTAGGTG | -0.0911 |
| TCGGGACA | -0.117 |
| CATCTATC | -0.0822 |
| GACCCTGA | -0.239 |
| AAACCGCA | -0.221 |
| CCCGGTTC | -0.158 |
| CACGTTCA | -0.0298 |
| GCGCGATA | -0.0175 |
| AGGACAAA | 0.12 |

| Sequence | PBM E-score |
| --- | --- |
| TGCAGAAA | 0.0257 |
| GTCTACGA | -0.126 |
| AGTTGTCC | 0.117 |
| ATTGAGTC | 0.0829 |
| GTCTAACA | -0.0519 |
| CGGAACGA | 0.226 |
| AAATTGCA | -0.0262 |
| GCGTGGGA | -0.13 |
| CCAAACAC | -0.00595 |
| AATACCAG | -0.0474 |
| AACCGCTG | -0.175 |
| CACCCCCA | -0.251 |
| CGAAAGGA | 0.0906 |
| AAAGCACG | -0.152 |
| GCATTCTA | -0.00067 |
| AAAGCGAG | 0.068 |
| AAGACCTG | -0.27 |
| TGCGGGAA | 0.03 |
| AGTTATCC | 0.09 |
| CTAGCTGA | -0.122 |
| AAGAGAAA | 0.0578 |
| AGTAAGAA | 0.132 |
| GAAATTGA | 0.225 |
| GCTCAACC | -0.096 |
| ACGTGTCC | -0.179 |

| Sequence | PBM E-score |
| --- | --- |
| ATGGCGAG | -0.165 |
| CAGCCGTA | -0.153 |
| ACGTACGA | -0.0612 |
| AGTATGGA | 0.11 |
| CACGATGA | -0.0806 |
| AGCCCGTG | -0.224 |
| GTTAAAGA | 0.0511 |
| AATCAGGC | 0.0629 |
| CAGTAGCA | -0.115 |
| GATTGAGC | 0.0614 |
| ACCCTCCT | -0.215 |
| GGTGCAAA | 0.0509 |
| ACCAGACG | -0.183 |
| ATACCAGA | -0.00832 |
| GGGCCGGA | 0.206 |
| ACGAGGCC | -0.169 |
| GCTTTCAC | -0.0493 |
| ACTTCCAC | -0.0347 |
| ATGGTGTG | 0.0974 |
| AACGGGGG | -0.0848 |
| CCGAAGCG | -0.0599 |
| AAGGGAAA | -0.0893 |
| CCTGTATC | 0.0452 |
| ATCCAACA | 0.158 |
| GCCGAGTA | -0.198 |

| Sequence | PBM E-score |
| --- | --- |
| AGGTACCA | -0.121 |
| AGATCAAC | -0.02 |
| ATGTTGCG | -0.00964 |
| CATACTAG | 0.209 |
| ATCTAAGC | -0.182 |
| ATCTACCC | -0.0367 |
| CCATTACG | -0.165 |
| GCCCTCCA | -0.204 |
| ACCGGTGA | -0.0486 |
| CACCCCCG | -0.191 |
| CCCACACG | -0.0275 |
| AGGTTTTG | 0.158 |
| ACAACTGA | 0.0687 |
| ACAACTCT | 0.0085 |
| ACTGTGCG | -0.0488 |
| ACCTCCGA | 0.177 |
| ATTGTGTG | 0.0465 |
| GGATGGCA | 0.0887 |
| TACGTATA | 0.0853 |
| AAGGGACA | -0.167 |
| GGCTTACA | 0.0643 |
| AGAGTATC | 0.162 |
| GGGGCGAA | -0.148 |
| GAAGCTAC | -0.136 |
| AAATACCA | 0.123 |

| Sequence | PBM E-score |
| --- | --- |
| TGTCCTAA | -0.0608 |
| AAAGCAAT | 0.269 |
| AACACAAC | 0.142 |
| CTTTGTAA | 0.168 |
| AAAGAACG | 0.15 |
| GAGCCGGA | 0.254 |
| AGCAAGGG | -0.21 |
| AACGTACC | -0.0999 |
| ACCATTCC | 0.0388 |
| ACGGACAG | -0.0929 |
| CGTAGGGA | -0.245 |
| AACTCAGC | -0.125 |
| CAATGAAA | 0.0521 |
| CGTTGGAA | 0.0116 |
| AGTAACCG | 0.175 |
| CCTCCCCA | -0.221 |
| AACATTGC | -0.101 |
| AGTTTTCA | 0.223 |
| AAGCTTCT | 0.0619 |
| AGGATGGG | -0.268 |
| AAGCAAAC | 0.131 |
| GGGATACC | -0.333 |
| ATAGTGTA | 0.184 |
| CACAAGAA | 0.19 |
| ACGAGCTC | -0.0785 |

| Sequence | PBM E-score |
| --- | --- |
| GATACCAC | 0.00381 |
| TGTCTGAA | 0.0592 |
| ACGCGAGT | -0.0896 |
| AGGTCTAG | -0.14 |
| AGATATAG | 0.18 |
| GGTCGACA | -0.0152 |
| CATAGCAG | -0.277 |
| CTCACGGA | 0.095 |
| ACACTGCC | -0.00589 |
| ATTGGGAC | -0.0653 |
| ACAGAGGG | -0.303 |
| CCCCAGGC | -0.303 |
| ATCAACCG | 0.0875 |
| ATTGTATC | 0.186 |
| ATAATTAT | 0.39 |
| ATAAATGC | 0.125 |
| CTTGTGCC | -0.213 |
| ACCTTTCT | 0.0612 |
| CCTCTACC | -0.0759 |
| GTGAATAA | 0.185 |
| AGACACAA | 0.108 |
| CGTAAAAA | 0.201 |
